Assay results published in PubChem BioAssay (NCI).
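48-hour exposure; five concentrations; linearly interpolated endpoints. GI50: concentration for 50% inhibition of growth. At the TGI there is no net growth.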 Peptide text beside a SMILES is read from it.

system: NCI-H322M lung; assay: inhibition of tumour cell growth, NCI panel, 48 h

**Q.** Which TGI does the source give for c1ccc(CCN2CCOCC2)nc1 here?
**A.** > 100 µM

**Q.** Which TGI does the source give for COc1cc([C@@H]2c3cc4c(cc3[C@@H](OC3OC5COC(C)OC5C(OC(=O)CN5CCN(C)CC5)C3OC(=O)CN3CCN(C)CC3)C3COC(=O)[C@@H]32)OCO4)cc(OC)c1OC(=O)CN1CCN(C)CC1 (stereo partly specified) here?
**A.** > 100 µM

**Q.** With O=C(CN1C(=O)S/C(=C\C(Cl)=C\c2ccccc2)C1=O)NCCc1ccc(O)cc1 as the molecule, how does the GI50 read?
**A.** 3.53 µM

**Q.** And the TGI?
**A.** 14.5 µM

**Q.** With CC1OC(OC2C(CO)OC(O[C@H]3CC[C@@]4(C)C(=CC[C@H]5[C@@H]6C[C@@H]7O[C@](O)(CC[C@H](C)COC8OC(CO)C(O)C(O)C8O)[C@@H](C)[C@@H]7[C@@]6(C)CC[C@@H]54)C3)C(OC3OC(C)C(O)C(O)C3O)C2O)C(O)C(O)C1O (stereo partly specified) as the molecule, how does the TGI read?
**A.** 16.2 µM

**Q.** C[C@H](N[C@H]1CCC[C@]1(O)C#Cc1ccc2c(c1)OCO2)c1ccccc1 was tested. Which TGI did it give?
**A.** > 25 µM

**Q.** CSc1nc(C)c(Br)c(=O)n1C1OC(COC(C)=O)C(OC(C)=O)C(OC(C)=O)C1OC(C)=O (stereo unspecified) was tested. Which TGI did it give?
**A.** > 100 µM

**Q.** COc1ccc(C(=O)C(C(=O)C(=O)NC2C3CC4CC(C3)CC2C4)c2ccc(OC)cc2)cc1 (stereo unspecified) was tested. Which TGI did it give?
**A.** > 100 µM

**Q.** With COC(=O)C(Cc1ccccc1)NC(=O)Cn1ccnc1[N+](=O)[O-] (stereo unspecified) as the molecule, how does the TGI read?
**A.** > 100 µM

**Q.** CCOC(=O)C(=O)Nc1c(CC)cccc1C(C)CC (stereo unspecified) was tested. Which TGI did it give?
**A.** > 100 µM

**Q.** N#Cc1c(-c2cccc(Cl)c2)cc(-c2ccc(Cl)cc2)nc1N was tested. Which TGI did it give?
**A.** 75.1 µM

**Q.** How did the GI50 turn out when CC(C)n1c(=O)n(C)c2cnc3cc(F)c(-c4ccc(OCCCN5CCCCC5)nc4)cc3c21 was run?
**A.** 13 µM

**Q.** And the TGI?
**A.** 42.3 µM

**Q.** What does the source list for CC(=O)OC1Oc2cc(C)c(C)cc2-c2oc(=O)c(-c3ccc(F)cc3)cc21 (stereo unspecified)?
**A.** GI50: 28.8 µM; TGI: > 100 µM

**Q.** CCCC(=O)NC(C(=O)OCC)(N1CCOCC1)C(F)(F)F (stereo unspecified) was tested. Which TGI did it give?
**A.** > 100 µM

**Q.** With CC1(C)N=C(N)N=C(N)N1c1cccc(CCCCOc2ccccc2)c1 as the molecule, how does the GI50 read?
**A.** 0.228 µM

**Q.** And the TGI?
**A.** > 100 µM

**Q.** How did the TGI turn out when CCCNC(=O)Cn1c(C)cc2ccccc21 was run?
**A.** > 100 µM

**Q.** With O=C1/C(=C/c2ccc(Cl)cc2)N=C(c2ccccc2)N1c1nc2c(Cl)cc(Cl)cc2s1 as the molecule, how does the TGI read?
**A.** > 100 µM

**Q.** CC(C)[Si](OC1=C(c2ccccc2)C(NC(=O)/C=C/c2ccc([N+](=O)[O-])cc2)CCC1)(C(C)C)C(C)C (stereo unspecified) was tested. Which TGI did it give?
**A.** > 100 µM

**Q.** O=Nc1sc(=N\O)/c(=N/O)sc1NO was tested. Which TGI did it give?
**A.** > 100 µM

**Q.** With Cc1ccc(NC2=C(Cl)C(=O)N(Cc3ccccc3)C2=O)cc1Cl as the molecule, how does the GI50 read?
**A.** 13.8 µM

**Q.** What about the TGI of the same molecule?
**A.** 28.9 µM

**Q.** With CC(=O)OC[C@@]1(C)[C@@H]2[C@@H]3[C@@]4(CO[C@]3(C)C(=O)[C@@]3(O)C[C@H](C)[C@H](OC(C)=O)[C@@H]3[C@H]4OC(C)=O)[C@H](OC(=O)c3ccccc3)C[C@@H]21 as the molecule, how does the TGI read?
**A.** > 100 µM

**Q.** With CC(C)[C@@H](C(=O)N1CCC[C@H]1C(=O)OCc1ccccc1)N(C)C(=O)[C@H](C(C)C)N(C)C(=O)[C@H](Cc1ccccc1)N(C)C(=O)[C@H](NC(=O)OC(C)(C)C)C(C)C (HELM PEPTIDE1{[CC(C)(C)OC(=O)[*:2]].[dV].[meF].[meV].[meV].P.[c1ccc(CO[*:1])cc1]}$$$$V2.0) as the molecule, how does the TGI read?
**A.** > 100 µM

**Q.** For CCOC(=O)N/N=C(\Cc1ccc([N+](=O)[O-])cc1)OCC, which TGI is on record?
**A.** > 100 µM

**Q.** How did the GI50 turn out when O=C1/C(=C/c2ccccc2F)CN(C(=O)C(Cl)Cl)C/C1=C\c1ccccc1F was run?
**A.** 1.3 µM

**Q.** What about the TGI of the same molecule?
**A.** 2.58 µM

**Q.** Which results are given for COc1cc(C2CC(c3ccccc3)=NN2C(C)=O)cc(OC)c1OC (stereo unspecified)?
**A.** GI50: 12.2 µM; TGI: > 100 µM

**Q.** With CN(C)C(=S)N/N=C(\C(=N/NC(=S)N(C)C)c1ccccn1)c1ccccn1 as the molecule, how does the TGI read?
**A.** 19.8 µM

**Q.** With COc1cc([C@H]2CC(=O)C[C@@H](c3cc(OC)c(OC)c(OC)c3)C23C(=O)c2ccccc2C3=O)cc(OC)c1OC as the molecule, how does the TGI read?
**A.** > 100 µM

**Q.** With O=C(O)c1ccccc1-c1ccccc1C(=O)Nc1ccc2c(c1)[nH]c(=O)c1ccccc12 as the molecule, how does the TGI read?
**A.** > 100 µM

**Q.** For O=C(O)c1cccc2cccc(C(=O)O)c12.[Hg], which GI50 is on record?
**A.** 17.2 µM

**Q.** And the TGI?
**A.** 32.5 µM

**Q.** With CC(C)[Si](OC1=C(C(=O)N(C)c2ccccc2Cl)CCCCC1)(C(C)C)C(C)C as the molecule, how does the TGI read?
**A.** > 100 µM

**Q.** Which results are given for COc1ccc2c(c1)/C(=C\c1c(Cl)n(C)c3ccccc13)C(=O)N2?
**A.** GI50: 6.56 µM; TGI: 22.1 µM

**Q.** CC(C)n1c(=O)[nH]n(-c2ccccc2)c1=O was tested. Which TGI did it give?
**A.** > 100 µM

**Q.** Which TGI does the source give for O=C1c2cc([N+](=O)[O-])cc3cc([N+](=O)[O-])cc(c23)C(=O)N1CCCNCCNCCCN1C(=O)c2cc([N+](=O)[O-])cc3cc([N+](=O)[O-])cc(c23)C1=O here?
**A.** 6.84 µM
